Laboratory results as given in patent US20220267409A1 (KAHR MEDICAL, published 2022).

T1: human CD155 (PVR) endogenously expressed on DLD-1 WT cells (human, UniProt P15151 21-417)
T1 construct: whole, on cells
T1 sequence (looked up): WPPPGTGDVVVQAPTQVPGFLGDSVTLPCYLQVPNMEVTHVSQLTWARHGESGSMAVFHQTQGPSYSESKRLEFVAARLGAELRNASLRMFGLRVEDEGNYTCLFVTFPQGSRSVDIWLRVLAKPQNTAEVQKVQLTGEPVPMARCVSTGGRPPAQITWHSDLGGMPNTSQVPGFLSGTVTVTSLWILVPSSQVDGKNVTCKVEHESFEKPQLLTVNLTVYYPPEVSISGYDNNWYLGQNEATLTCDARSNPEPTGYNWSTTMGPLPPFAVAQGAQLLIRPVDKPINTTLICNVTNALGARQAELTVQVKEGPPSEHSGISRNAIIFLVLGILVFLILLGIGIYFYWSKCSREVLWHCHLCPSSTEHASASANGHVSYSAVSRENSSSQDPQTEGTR


Columns and labels:
[1] = biological target: T2, human PDL1 expressed on DLD1-PDL1 cells (human, UniProt Q9NZQ7); test: flow cytometry on DLD1-PDL1 cells against DLD1 WT cells, dilutions of supernatant, detection with anti-4-1BBL antibody
T2 construct: whole, on cells; also called CD274; DLD1 PDL1 overexpressing cell line
Procedure: The binding of the PD1 domain of heterodimers comprising a PD1 domain and a 4-1BBL domain (e.g. PD1-4-3xsc1BBL, SIRPα-PD1-3xsc4-1BBL heterodimers) to human PDL1 is determined using DLD1-PDL1 cell line overexpressing PDL1. DLD1-WT cells serve as a control as it expresses low levels of endogenous PDL1 (FIG. 8A). Cells are incubated with different dilutions of supernatant containing the heterodimers, followed by immuno-staining with a conjugated anti 4-1BBL antibody. Binding is analyzed by flow cytometry.
Methods—Cells were incubated with serial dilutions of the produced heterodimers-containing supernatants for 20 minutes at 4° C., followed by immuno-staining with conjugated antibody against 4-1BBL and analyzed by flow cytometry. In some cases, cells underwent pre-incubation with anti CD47 blocker antibody prior to the incubation with the supernatants.

[2] = biological target: T1, human CD155 (PVR) endogenously …; test: flow cytometry on DLD-1 WT cells (endogenous CD155) against U937 cells, dilutions of supernatant, detection with anti-4-1BBL antibody
Procedure: Binding was determined following incubation of the cells with the heterodimer by immuno-staining of its 4-1BBL domain using an anti-4-1BBL antibody, followed by flow cytometric analysis.
The binding of the TIGIT domain of heterodimers comprising a TIGIT domain and a 4-1BBL domain (e.g. TIGIT-Fc-PD1-3xSc-4-1BBL heterodimer) to human CD155 is determined using a DLD-1 WT cell line endogenously expressing CD155. U937 cells serve as a negative control as they don't express endogenous CD155. Cells are incubated with different dilutions of supernatant containing the heterodimers, followed by immuno-staining with a conjugated anti 4-1BBL antibody. Binding is analyzed by flow cytometry.
Methods—Cells were incubated with serial dilutions of the produced heterodimers-containing supernatants for 20 minutes at 4° C., followed by immuno-staining with conjugated antibody against 4-1BBL, and analyzed by flow cytometry.

[3] = biological target: T3, human CD40 expressed on HT1080-CD40 cells (human, UniProt P25942 21-277); test: flow cytometry on HT1080-CD40 cells against HT1080 WT cells, dilutions of supernatant, detection with anti-PD1 antibody
T3 construct: whole, on cells; also called HT1080 overexpressing CD40 cells
Procedure: The binding of the heterodimer to the CD40 expressing cell line was determined following incubation of the cells with the heterodimer by immuno-staining of its PD1 domain using an anti-PD1 antibody, followed by flow cytometric analysis.
The binding of the CD40L domain of heterodimers comprising a CD40L domain and a PD1 domain (e.g. SIRPα-PD1-3xscCD40L heterodimer) to human CD40 is determined using a HT1080-CD40 cell line overexpressing CD40. HT1080 WT cells serve as a negative control as they don't express endogenous CD40. Cells are incubated with different dilutions of supernatant containing the heterodimers, followed by immuno-staining with conjugated anti-PD-1 antibody. Binding is analyzed by flow cytometry.

T2 sequence (Q9NZQ7 19-290): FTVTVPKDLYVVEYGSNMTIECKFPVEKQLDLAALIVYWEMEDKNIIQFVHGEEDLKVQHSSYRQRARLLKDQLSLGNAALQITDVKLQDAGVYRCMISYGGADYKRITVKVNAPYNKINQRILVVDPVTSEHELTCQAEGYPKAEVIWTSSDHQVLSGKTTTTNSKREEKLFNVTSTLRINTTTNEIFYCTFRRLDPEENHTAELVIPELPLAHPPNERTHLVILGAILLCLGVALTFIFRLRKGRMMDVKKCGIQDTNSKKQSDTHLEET
T3 sequence (P25942 21-277): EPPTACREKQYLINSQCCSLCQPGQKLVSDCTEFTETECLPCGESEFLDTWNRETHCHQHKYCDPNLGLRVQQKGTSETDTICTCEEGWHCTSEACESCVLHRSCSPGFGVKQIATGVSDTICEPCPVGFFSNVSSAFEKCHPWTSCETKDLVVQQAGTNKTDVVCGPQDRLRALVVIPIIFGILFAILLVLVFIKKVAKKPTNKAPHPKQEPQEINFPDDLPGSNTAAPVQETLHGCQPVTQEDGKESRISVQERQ

| binding result [1] | binding result [2] | binding result [3] | Binder |
| --- | --- | --- | --- |
| binds | binds | – | TIGIT-Fc-PD1-3xsc-4-1BBL heterodimer TSP501 (SEQ ID NOs: 152 and 79) (Fc fusion, Knob-into-hole hIgG4 Fc heterodimer made in Expi293F cells; tested as culture supernatant; also called TIGIT-PD1-sc3x4-1BBL heterodimer; PD1-TIGIT-sc3x4-1BBL heterodimer) chain 1: MTGTIETTGNISAEKGGSIALQCHLSSTTAQVTQVNWEQQDQLLAISNADLGWHISPSFKDRVAPGPGLGLTLQSLTVNDTGEYFCIYHTYPDGTYTGRIFLEVLESSVAEHGGGGSGGGGS[human IgG4 Fc with S228P L235E Y349C T366W (EU numbers) omitted here] chain 2: DSPDRPWNPPTFSPALLVVTEGDNATFTCSFSNTSESFVLNWYRMSPSNQTDKLAAFPEDRSQPGQDSRFRVTQLPNGRDFHMSVVRARRNDSGTYLCGAISLAPKAQIKESLRAELRVTERRAEVPTAHPSPSPRPAGQGGGGSGGGGSESKYGPPCPPCPAPEFEGGPSVFLFPPKPKDTLMISRTPEVTCVVVDVSQEDPEVQFNWYVDGVEVHNAKTKPREEQFNSTYRVVSVLTVLHQDWLNGKEYKCKVSNKGLPSSIEKTISKAKGQPREPQVYTLPPSQCEMTKNQVSLSCAVKGFYPSDIAVEWESNGQPENNYKTTPPVLDSDGSFFLVSRLTVDKSRWQEGNVFSCSVMHEALHNHYTQKSLSLSLGKGGGGSGGGGSAASPRLREGPELSPDDPAGLLDLRQGMFAQLVAQNVLLIDGPLSWYSDPGLAGVSLTGGLSYKEDTKELVVAKAGVYYVFFQLELRRVVAGEGSGSVSLALHLQPLRSAAGAAALALTVDLPPASSEARNSAFGFQGRLLHLSAGQRLGVHLHTEARARHAWQLTQGATVLGLFRVTPEIPAGLPSPRSEGGGGSGGGGSGGGGSAASPRLREGPELSPDDPAGLLDLRQGMFAQLVAQNVLLIDGPLSWYSDPGLAGVSLTGGLSYKEDTKELVVAKAGVYYVFFQLELRRVVAGEGSGSVSLALHLQPLRSAAGAAALALTVDLPPASSEARNSAFGFQGRLLHLSAGQRLGVHLHTEARARHAWQLTQGATVLGLFRVTPEIPAGLPSPRSEGGGGSGGGGSGGGGSAASPRLREGPELSPDDPAGLLDLRQGMFAQLVAQNVLLIDGPLSWYSDPGLAGVSLTGGLSYKEDTKELVVAKAGVYYVFFQLELRRVVAGEGSGSVSLALHLQPLRSAAGAAALALTVDLPPASSEARNSAFGFQGRLLHLSAGQRLGVHLHTEARARHAWQLTQGATVLGLFRVTPEIPAGLPSPRSE |
| – | – | binds | PD1-SIRPα-Fc-3xscCD40L heterodimer TSP112 (SEQ ID NOs: 81 and 146) (Fc fusion, Knob-into-hole hIgG4 Fc heterodimer made in Expi293F cells; tested as culture supernatant; also called PD1-SIRPα-sc3xCD40L heterodimer) chain 1: DSPDRPWNPPTFSPALLVVTEGDNATFTCSFSNTSESFVLNWYRMSPSNQTDKLAAFPEDRSQPGQDSRFRVTQLPNGRDFHMSVVRARRNDSGTYLCGAISLAPKAQIKESLRAELRVTERRAEVPTAHPSPSPRPAGQGGGGSGGGGS[human IgG4 Fc with S228P L235E Y349C T366W (EU numbers) omitted here] chain 2: [about 350 residues omitted here]GGGGSGGGGSESKYGPPCPPCPAPEFEGGPSVFLFPPKPKDTLMISRTPEVTCVVVDVSQEDPEVQFNWYVDGVEVHNAKTKPREEQFNSTYRVVSVLTVLHQDWLNGKEYKCKVSNKGLPSSIEKTISKAKGQPREPQVYTLPPSQCEMTKNQVSLSCAVKGFYPSDIAVEWESNGQPENNYKTTPPVLDSDGSFFLVSRLTVDKSRWQEGNVFSCSVMHEALHNHYTQKSLSLSLGKGGGGSGGGGSGGGGSGGGGSQKGDQNPQIAAHVISEASSKTTSVLQWAEKGYYTMSNNLVTLENGKQLTVKRQGLYYIYAQVTFCSNREASSQAPFIASLSLKSPGRFERILLRAANTHSSAKPCGQQSIHLGGVFELQPGASVFVNVTDPSQVSHGTGFTSFGLLKLGGGGSGGGGSGGGGSQKGDQNPQIAAHVISEASSKTTSVLQWAEKGYYTMSNNLVTLENGKQLTVKRQGLYYIYAQVTFCSNREASSQAPFIASLSLKSPGRFERILLRAANTHSSAKPCGQQSIHLGGVFELQPGASVFVNVTDPSQVSHGTGFTSFGLLKLGGGGSGGGGSGGGGSQKGDQNPQIAAHVISEASSKTTSVLQWAEKGYYTMSNNLVTLENGKQLTVKRQGLYYIYAQVTFCSNREASSQAPFIASLSLKSPGRFERILLRAANTHSSAKPCGQQSIHLGGVFELQPGASVFVNVTDPSQVSHGTGFTSFGLLKL |
